The source of these data is publication PMC5892938.

This is one part of the list. Construct or isoform of the protein are uncertain.

For this assay, the target named is GST-SBP-ILF3 (Homo sapiens) (UniProt Q12906). Description: targeted RNA Bind-n-Seq. The settings on record: RBNS binding buffer: 25 mM Tris pH 7.5, 150 mM KCl, 3 mM MgCl2, 0.1% Tween, 0.5 mg/mL BSA, 1 mM DTT; 27 nM protein, 750 pM RNA pool; temperature not stated; high values mean tight binding; sequences stand for … in GGGUAAAAGCGAGGUGAA…CGGGACAAGUAUUAUGGG
For “UUUUUUUUUUGAGAGCGAAGCGUUCUUCUA [tttttgagapaired]”, the binding signal (log2 fold change) was -0.0844. For the sequence “GUGGUGUGUGUUGGCCCCUAACACACAUCA [gtspaired]”, the binding signal (log2 fold change) was -0.211. In the case of “UUUUUUUUUUGAGAUGGAACCCAUCUCCGG [tttttgagapaired]” it was 0.0347. In the case of “UUUUUUUUUUGAGAUCGACACGAUCUCCUA [tttttgagapaired]” it was 0.132; in that of “GGUUGGUGUGUUGGAUUCUAACACAUCAGC [gtspaired]”, -0.143; in that of “UUUUUUUUUUGAGAUGGCAACCAUUUCCGG [tttttgagapaired]”, 0.603. In the case of “UUUUUUUUUUGAGACGGUUUCCGUCUCCUG [tttttgagapaired]” it was 0.435; in that of “UUUUUUUUUUGAGAUGGGAUCCGUCUCCAG [tttttgagapaired]”, 0.386. On to “UUUUUUUUUUGAGAUGGAUCCCAUUUCCAG [tttttgagapaired]”, for which the binding signal (log2 fold change) was 0.302.

In the case of “GUUGGUGGUGUUGGACUCUAACACCGCCAG [gtspaired]”, the binding signal (log2 fold change) was -0.332.

“UUUUUUUUUUGAGAGGGUGACCCUCUCCAG [tttttgagapaired]”: the binding signal (log2 fold change) is 0.446. In the case of “UUUUUUUUUUGAGACCGGGGCGGUUUUCUA [tttttgagapaired]” it was 0.564.

As for “GGUUGGUGUGUUGGCCCCUAACACAUCAGC [gtspaired]”, the binding signal (log2 fold change) was -0.0342. Take “UUUUUUUUUUGAGAUCGUCACGAUCUCCAG [tttttgagapaired]”: the binding signal (log2 fold change) was 0.159. As to “GUGUGUGGUGUUGGCGUCUAACACCGCACA [gtspaired]”, the binding signal (log2 fold change) is -0.353. In the case of “UUUUUUUUUUGAGAUGGUGGCCAUCUCCGG [tttttgagapaired]” it was 0.693. “UUUUUUUUUUGAGAUGGGUCCCAUCUCCUG [tttttgagapaired]”: the binding signal (log2 fold change) stood at 0.984.

In the case of “UUUUUUUUUUGAGACGGAUACCGUUUCCAG [tttttgagapaired]”, the binding signal (log2 fold change) was 0.435. In the case of “UUUUUUUUUUGAGAGGGGUGCCCUUUCCAG [tttttgagapaired]” it was 0.657; in that of “GGUGGUGGUGUUGGUCUCUAACACCGCUAC [gtspaired]”, -0.403.

For “UUUUUUUUUUGAGACUGGGGCAGUCUUCUA [tttttgagapaired]”, the binding signal (log2 fold change) was found to be 0.658. In the case of “GUUGGUGGUGUUGGCCCCUAACACCGCCGA [gtspaired]” it was -0.0133; in that of “UUUUUUUUUUGAGAUGGGAUCCAUCUCCAG [tttttgagapaired]”, -0.0306; in that of “GGUUGUGGUGUUGGAAUCUAACACCGCAGC [gtspaired]”, -0.687. In the case of “UUUUUUUUUUGAGAGUGAAGCACUCUCCAG [tttttgagapaired]” it was 0.145; in that of “UUUUUUUUUUGAGAGCGUAUCGUUCUCCGG [tttttgagapaired]”, 0.149. For the sequence “UUUUUUUUUUGAGAGGGAGACCCUCUCCUG [tttttgagapaired]”, the binding signal (log2 fold change) worked out at 0.393. As to “UUUUUUUUUUGAGAGCGUUCCGCUCUUCUA [tttttgagapaired]”, the binding signal (log2 fold change) worked out at 0.655. On to “UUUUUUUUUUGAGACGGGGGCCGUCUCCUA [tttttgagapaired]”, for which the binding signal (log2 fold change) amounted to 0.772. Take “GUGUGGUGUGUUGGCGUCUAACACAUCGCG [gtspaired]”: the binding signal (log2 fold change) is -0.75. With “UUUUUUUUUUGAGAGGGAAACCCUCUCCUA [tttttgagapaired]”, the binding signal (log2 fold change) turned out to be 0.409. In the case of “UUUUUUUUUUGAGACUGACACAGUUUCCAG [tttttgagapaired]” it was 0.163.

Consider “GUGGUGUGUGUUGGAACCUAACACAUACCG [gtspaired]”, for which the binding signal (log2 fold change) was -0.731.

On to “UUUUUUUUUUGAGACUGAGUCAGUUUCCUG [tttttgagapaired]”, for which the binding signal (log2 fold change) was found to be 0.652.

“UUUUUUUUUUGAGACGGAUUCCGUUUCCUA [tttttgagapaired]”: the binding signal (log2 fold change) came to 0.0924. In the case of “GUGUGUUGUGUUGGUCUCUAACACAGCGCA [gtspaired]”, the binding signal (log2 fold change) is -0.684.

For “UUUUUUUUUUGAGACGGAUGCCGUUUCCUA [tttttgagapaired]”, the binding signal (log2 fold change) was 0.492.

Consider “UUUUUUUUUUGAGAGUGUUGCAUUCUCCGG [tttttgagapaired]”, for which the binding signal (log2 fold change) was 0.256. In the case of “UUUUUUUUUUGAGAGGGGUCCCCUCUUCUA [tttttgagapaired]”, the binding signal (log2 fold change) was determined as 0.757. In the case of “GGUGGUGGUGUUGGCUUCUAACACCAUCGC [gtspaired]” it was -0.921; in that of “UUUUUUUUUUGAGAUCGAGGCGAUCUCCAG [tttttgagapaired]”, 0.34. In the case of “UUUUUUUUUUGAGAGCGGCACGCUCUUCUA [tttttgagapaired]”, the binding signal (log2 fold change) is -0.3.

Consider “GUGUGGUGUGUUGGAGCCUAACACACUACA [gtspaired]”, for which the binding signal (log2 fold change) is -0.395.

On to “GUGUUGUGUGUUGGAACCUAACACACAGCG [gtspaired]”, for which the binding signal (log2 fold change) was -0.54. As for “UUUUUUUUUUGAGAGCGAUGCGCUCUUCUA [tttttgagapaired]”, the binding signal (log2 fold change) is 0.227. In the case of “UUUUUUUUUUGAGACCGAGACGGUCUUCUG [tttttgagapaired]” it was 0.678; in that of “GUUGGUGGUGUUGGUUCCUAACACCAUCAA [gtspaired]”, -0.508. As for “UUUUUUUUUUGAGAUGGAGCCCAUCUCCGG [tttttgagapaired]”, the binding signal (log2 fold change) was found to be 0.318. As for “UUUUUUUUUUGAGAUGGGGUCCGUCUUCUA [tttttgagapaired]”, the binding signal (log2 fold change) stood at 0.814. In the case of “UUUUUUUUUUGAGAGGGCAACCCUCUCCUA [tttttgagapaired]” it was 0.203. In the case of “GUGGUGUGUGUUGGAUUCUAACACACAUCG [gtspaired]” it was -0.888; in that of “UUUUUUUUUUGAGAUGGAUACCAUCUCCAG [tttttgagapaired]”, 0.00881.

Turning to “GUGUGGUGUGUUGGAUUCUAACACAUCGCA [gtspaired]”, the binding signal (log2 fold change) is -0.774. Regarding “GUGUGUGGUGUUGGUGCCUAACACCGCGCA [gtspaired]”, the binding signal (log2 fold change) is -0.735. In the case of “UUUUUUUUUUGAGAUGGAUACCAUUUCCAG [tttttgagapaired]” it was 0.199; in that of “GUGUGUGGUGUUGGUCUCUAACACCACAUA [gtspaired]”, -0.322. Take “UUUUUUUUUUGAGAUCGAUACGAUCUUCUG [tttttgagapaired]”: the binding signal (log2 fold change) came out at 0.35.

As to “UUUUUUUUUUGAGACGGAUUCUGUCUCCGG [tttttgagapaired]”, the binding signal (log2 fold change) was 0.178. In the case of “GUUGUGUGUGUUGGCGUCUAACACACACGA [gtspaired]” it was -0.484; in that of “GUGUGUUGUGUUGGACCCUAACACAGCGCG [gtspaired]”, -0.503.

For “GUGGUUGGUGUUGGUGUCUAACACCGACCG [gtspaired]”, the binding signal (log2 fold change) is -0.506. With “UUUUUUUUUUGAGACGGCAGCCGUCUCCUA [tttttgagapaired]”, the binding signal (log2 fold change) was found to be 0.715.

Consider “UUUUUUUUUUGAGAGCGGGUCGCUCUCCUG [tttttgagapaired]”, for which the binding signal (log2 fold change) was determined as 0.404. On to “UUUUUUUUUUGAGACCGCUCCGGUCUCCGG [tttttgagapaired]”, for which the binding signal (log2 fold change) stood at 0.556. In the case of “UUUUUUUUUUGAGAGGGUGACCCUCUCCUG [tttttgagapaired]” it was 0.327; in that of “GUGUGUUGUGUUGGUCUCUAACACAGCACG [gtspaired]”, -0.772. “UUUUUUUUUUGAGACGGGAGCUGUCUCCAG [tttttgagapaired]”: the binding signal (log2 fold change) is 0.961. In the case of “UUUUUUUUUUGAGAUGGGUACUAUCUCCGG [tttttgagapaired]” it was 0.587; in that of “UUCUCUCCUCCUCCGCUGGAGGGGGAGGGA [ctspaired]”, -0.524; in that of “UUUUUUUUUUGAGACGGUCUCUGUCUCCAG [tttttgagapaired]”, 0.912.

For the sequence “UUUUUUUUUUGAGACGGUCUCCGUCUUCUA [tttttgagapaired]”, the binding signal (log2 fold change) was 0.575. In the case of “GUGUGGUGUGUUGGAUCCUAACACACCGCG [gtspaired]” it was -0.723; in that of “GGUUGGUGUGUUGGCCUCUAACACAUCAGC [gtspaired]”, -0.501. In the case of “GUGUGGUGUGUUGGUCUCUAACACAUCACA [gtspaired]” it was -0.925; in that of “UUUUUUUUUUGAGAACGAGACGUUCUCCGG [tttttgagapaired]”, -0.0305; in that of “UUUUUUUUUUGAGACGGCAACCGUCUCCUG [tttttgagapaired]”, 0.54. For the sequence “UUUUUUUUUUGAGACUGAGACAGUCUUCUG [tttttgagapaired]”, the binding signal (log2 fold change) worked out at 0.389. In the case of “UUUUUUUUUUGAGACGGUAACCGUCUCCGG [tttttgagapaired]” it was 0.461; in that of “UUUUUUUUUUGAGAUGGGCGCCAUCUCCUA [tttttgagapaired]”, 0.467. In the case of “GUGUGUUGUGUUGGACCCUAACACAACGCG [gtspaired]” it was -0.331; in that of “UUUUUUUUUUGAGAUGGGUGCCAUCUCCUG [tttttgagapaired]”, 0.419. “GUGUGUGGUGUUGGAUCCUAACACCGCGCG [gtspaired]”: the binding signal (log2 fold change) is -0.478. In the case of “UUUUUUUUUUGAGAAGGUGUCCUUCUCCAG [tttttgagapaired]” it was 0.502. In the case of “UUUUUUUUUUGAGAUGGUUCCCAUCUCCUG [tttttgagapaired]” it was 0.176. Consider “UUUUUUUUUUGAGACCGUAACGGUCUCCGG [tttttgagapaired]”, for which the binding signal (log2 fold change) is 0.471.

Consider “GGUGUGUGUGUUGGUCCCUAACACACAUAC [gtspaired]”, for which the binding signal (log2 fold change) was -0.11. In the case of “GGUUGUGGUGUUGGCCUCUAACACCGCGAC [gtspaired]” it was -0.709.

For “UUUUUUUUUUGAGAGGGAAACCCUCUUCUG [tttttgagapaired]”, the binding signal (log2 fold change) was 0.0767. In the case of “UUUUUUUUUUGAGAGCGGGGCGCUCUUCUA [tttttgagapaired]” it was 0.545.

Turning to “UUUUUUUUUUGAGAGCGAGGCGCUCUCCAG [tttttgagapaired]”, the binding signal (log2 fold change) stood at 0.235. As to “UUUUUUUUUUGAGAGCGGCACGCUCUCCGG [tttttgagapaired]”, the binding signal (log2 fold change) was -0.254.

As to “GUGGUGUGUGUUGGCUUCUAACACACGCCG [gtspaired]”, the binding signal (log2 fold change) was -0.816.

In the case of “GUGUGUGGUGUUGGUAUCUAACACCGCAUA [gtspaired]”, the binding signal (log2 fold change) is -0.515. In the case of “UUUUUUUUUUGAGAUGGCUACCAUCUCCGG [tttttgagapaired]” it was 0.408. Turning to “UUUUUUUUUUGAGAACGUAACGUUCUCCGG [tttttgagapaired]”, the binding signal (log2 fold change) is 0.122. In the case of “UUUUUUUUUUGAGAUGGAAACUAUCUCCGG [tttttgagapaired]” it was 0.126. Consider “GUGUGUGGUGUUGGCGCCUAACACCAUACA [gtspaired]”, for which the binding signal (log2 fold change) is -0.439. Regarding “UUUUUUUUUUGAGAACGUAGCGUUCUCCUA [tttttgagapaired]”, the binding signal (log2 fold change) was 0.209.

On to “UUUUUUUUUUGAGAGCGUUGCGCUCUUCUA [tttttgagapaired]”, for which the binding signal (log2 fold change) stood at 0.432. On to “GUGUGGUGUGUUGGUCUCUAACACACUAUA [gtspaired]”, for which the binding signal (log2 fold change) was -0.597. In the case of “GUGUGGUGUGUUGGUAUCUAACACAUCGCG [gtspaired]” it was -0.623; in that of “UUUUUUUUUUGAGAAGGAGUCCUUCUCCAG [tttttgagapaired]”, -0.0166; in that of “UUUUUUUUUUGAGAGGGCGGCCCUUUCCAG [tttttgagapaired]”, 0.669.
